The full ranking holds about 81,000 sequences; the median of “one-hybrid fitness for binding parS DNA” is about -0.17, and the highest 2% start at about 0.51. The list shows a part of the results.
B1: Caulobacter ParB omega fusion; a variant is named by its letters at X, in order, B8GW30 (parent)
chain: MESVVVGEPGMSEGRRGLGRGLSALLGEVDAAPAQAPGEQLGGSREAPIEILQRNPDQPRRTFREEDLEDLSNSIREKGVLQPILVRPSPDTAGEYQIVAGERAWRAAQRAGLKTVPIMVRELDDLAVLEIGIIENVQRADLNVLEEALSYKVLMEKFERTQENIAQTIGKSXSHVANXMRLLXLPDEVQSYLVSGELTAXHARAIAAAADPVALAKQIIEGGLSVRETEALARKAPNLSAGKSKGGRPPRVKDTDTQALESDLSSVLGLDVSIDHRGSTGTLTITYATLEQLDDLCNRLTRGI

Variants of: B1
Experiment: one-hybrid fitness for binding parS DNA (scaled: cognate 1, non-cognate 0); higher = stronger binding
Conditions: with parS DNA site
Method in brief: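 In E. coli USO, a HIS3 reporter with its site placed 19 bp from the promoter was used to select Caulobacter ParB variants randomised at four specificity codons. Growth lasted 48 hours at 37°C on histidine-free M9 containing 0.1 mM IPTG and 5 mM 3-AT. Fitness was taken as the log change in variant-to-wild-type read ratio from Illumina sequencing of pre- and post-selection plasmids, rescaled between the non-cognate and cognate sites.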

Variant | one-hybrid fitness for binding parS DNA
MQIV | ≤ 0.2
GGIC | ≤ 0.2
PHAT | ≤ 0.2
MVNF | ≤ 0.2
YGKV | ≤ 0.2
RLNL | ≤ 0.2
QCKF | ≤ 0.2
LHTR | ≤ 0.2
FSHM | ≤ 0.2
YAPI | ≤ 0.2
AHRN | ≤ 0.2
IVNQ | ≤ 0.2
CNVE | ≤ 0.2
RMIV | ≤ 0.2
AKYL | ≤ 0.2
WKPG | ≤ 0.2
RKTY | 0.353
RWHK | ≤ 0.2
IDCI | ≤ 0.2
GRWG | ≤ 0.2
LCCF | 0.3
LRRD | ≤ 0.2
RSIG | 0.822
SCRT | ≤ 0.2
LRRR | ≤ 0.2

Variant | one-hybrid fitness for binding parS DNA
CRAW | ≤ 0.2
GNFS | ≤ 0.2
VTAN | ≤ 0.2
CDVV | ≤ 0.2
PDAV | ≤ 0.2
FSPY | ≤ 0.2
VARR | ≤ 0.2
PEEM | ≤ 0.2
ALAY | ≤ 0.2
EWVR | ≤ 0.2
QMSI | ≤ 0.2
SPNQ | ≤ 0.2
PWFF | ≤ 0.2
SKIC | ≤ 0.2
YAHC | ≤ 0.2
HKLL | ≤ 0.2
YACS | ≤ 0.2
SVHK | ≤ 0.2
RILF | 0.269
GLDM | ≤ 0.2
DEPI | ≤ 0.2
PQNT | ≤ 0.2
TESS | ≤ 0.2
RVQT | 0.913
EWPG | ≤ 0.2

Variant | one-hybrid fitness for binding parS DNA
CAAQ | ≤ 0.2
TSFG | ≤ 0.2
YPIW | ≤ 0.2
PTIP | ≤ 0.2
QHQY | ≤ 0.2
RMGL | ≤ 0.2
WADS | ≤ 0.2
LINR | ≤ 0.2
HILV | ≤ 0.2
VGLM | ≤ 0.2
QYKR | ≤ 0.2
PTHV | ≤ 0.2
DGMG | ≤ 0.2
IRSP | ≤ 0.2
TWKK | ≤ 0.2
RRGK | ≤ 0.2
TFVH | ≤ 0.2
TGEM | ≤ 0.2
TRNH | ≤ 0.2
NLKG | ≤ 0.2
PYCG | ≤ 0.2
PCTM | ≤ 0.2
VSSA | ≤ 0.2
IQAL | ≤ 0.2
RKKV | ≤ 0.2

Variant | one-hybrid fitness for binding parS DNA
QPHI | ≤ 0.2
AEYE | ≤ 0.2
FCSN | ≤ 0.2
MQNA | ≤ 0.2
KLEF | ≤ 0.2
EGVT | ≤ 0.2
TSCM | ≤ 0.2
HTVN | ≤ 0.2
PCLA | ≤ 0.2
ARER | ≤ 0.2
ILPL | ≤ 0.2
FWRR | ≤ 0.2
TSCK | ≤ 0.2
MSED | ≤ 0.2
RKKE | ≤ 0.2
GTRT | ≤ 0.2
VHGI | ≤ 0.2
DSSG | ≤ 0.2
QRQC | ≤ 0.2
CVHI | ≤ 0.2
YYKT | ≤ 0.2
FPRS | ≤ 0.2
NDKL | ≤ 0.2
MSTL | ≤ 0.2
HHKP | ≤ 0.2

Variant | one-hybrid fitness for binding parS DNA
VGPR | ≤ 0.2
RKHV | ≤ 0.2
SIHL | ≤ 0.2
QTAA | ≤ 0.2
TNLP | ≤ 0.2
VSGS | ≤ 0.2
QAYV | ≤ 0.2
GLFR | ≤ 0.2
YCQT | ≤ 0.2
TRMD | ≤ 0.2
PRIF | ≤ 0.2
RIKQ | ≤ 0.2
LYVQ | ≤ 0.2
IDYS | ≤ 0.2
WGHV | ≤ 0.2
AISH | ≤ 0.2
LMSQ | ≤ 0.2
VEGS | ≤ 0.2
YNLW | ≤ 0.2
ESQM | ≤ 0.2
RQQS | 0.987
QYLG | ≤ 0.2
AHPG | ≤ 0.2
PKCK | ≤ 0.2
NTIY | ≤ 0.2

Variant | one-hybrid fitness for binding parS DNA
AWKR | ≤ 0.2
GYPS | ≤ 0.2
KRMI | ≤ 0.2
HDAR | ≤ 0.2
KYSA | ≤ 0.2
TCPY | ≤ 0.2
SLSI | ≤ 0.2
DVDS | ≤ 0.2
TQSC | ≤ 0.2
TPKP | ≤ 0.2
VFPC | ≤ 0.2
QNKL | ≤ 0.2
TSKD | ≤ 0.2
YRHG | ≤ 0.2
QAWE | ≤ 0.2
SYVT | ≤ 0.2
VLSV | ≤ 0.2
RMGT | 0.937
CNAS | ≤ 0.2
KSQS | ≤ 0.2
PFWV | ≤ 0.2
EFPM | ≤ 0.2
SGPG | ≤ 0.2
FVYW | ≤ 0.2
HGNI | ≤ 0.2

Variant | one-hybrid fitness for binding parS DNA
APTA | ≤ 0.2
SMPR | ≤ 0.2
WVWF | ≤ 0.2
RFYV | ≤ 0.2
FIHV | ≤ 0.2
DFGA | ≤ 0.2
DPVF | ≤ 0.2
LSVN | ≤ 0.2
KEWT | ≤ 0.2
KKQR | ≤ 0.2
VLQL | ≤ 0.2
IPAY | ≤ 0.2
RKHG | 0.925
TRKY | ≤ 0.2
QCKV | ≤ 0.2
SLLQ | ≤ 0.2
TCHN | ≤ 0.2
CIEG | ≤ 0.2
MVLG | ≤ 0.2
PSWE | ≤ 0.2
ETYG | ≤ 0.2
TINS | ≤ 0.2
IDSV | ≤ 0.2
MHWG | ≤ 0.2
SHRR | ≤ 0.2

Variant | one-hybrid fitness for binding parS DNA
SHDC | ≤ 0.2
SYEC | ≤ 0.2
LNAY | ≤ 0.2
HYLD | ≤ 0.2
DWSS | ≤ 0.2
KMLF | ≤ 0.2
TTKP | ≤ 0.2
HQAP | ≤ 0.2
KVTN | ≤ 0.2
GAQG | ≤ 0.2
NSCS | ≤ 0.2
AIVR | ≤ 0.2
DTTL | ≤ 0.2
DNWS | ≤ 0.2
IRRW | ≤ 0.2
IRYA | ≤ 0.2
ETLR | ≤ 0.2
HFGY | ≤ 0.2
QDNH | ≤ 0.2
GTLG | ≤ 0.2

Source: a collection of fitness landscapes (doi:10.1016/j.celrep.2020.107928)
